Test results published in patent publication US20230193292A1 (CHIA TAI TIANQING PHARMACEUTICAL GROUP, published 2023).

B1: 1A5-Fc (Fc fusion)
chain: QVQLVESGGGSVQAGGSLLLSCAASGYTFSPCAMGWFRQAPGKERSLVSWITVDGTTDYADSVKGRFTISRDNAKNMVYLQMTSLEPEDTATYYCNTVYILTPSCRPQPWGPGTQVTVSS[no letters for human IgG1 Fc]
notes: Expressed in CHO cells, purified on protein A; also called anti-human BCMA VHH-Fc chimeric antibody 1A5-Fc
B2: 1B5-Fc (Fc fusion)
chain: QVQLVESGGGSVQAGGSLRLSCAASGVTFNSDCMGWFRQAPGKEREAVARIETGYGGTLYADSVKGRFTISRDNAKKTVYLQMNSLKFEDTAMYYCAAKRSWCSPTWWREVDYNYWGQGTLVTVSS[no letters for human IgG1 Fc]
notes: also called anti-human BCMA VHH-Fc chimeric antibody 1B5-Fc
B3: 1B11-Fc (Fc fusion)
chain: QVQLVESGGGSVPAGGSMRLSCAASGYRNPMVCMGWFRQAPGKKREGVALITTDGGTTLYADSVKGRFTISQDNAKNTVYLQMNNLKPEDTAMYTCAADDRPWCMTVGVRTEDYDTWGQGTLVTVSS[no letters for human IgG1 Fc]
notes: also called anti-human BCMA VHH-Fc chimeric antibody 1B11-Fc

Columns and labels:
[1] = target: T1, human BCMA-His protein (ACRO, product catalog No. BCA-H522y) (human, UniProt Q02223 1-54, biotin-conjugated in the assays of Example 5 and 6.1 (sites not given)); assay: indirect ELISA, 2 µg/mL BCMA-His coated
T1 construct: Bought protein; The biotin-conjugated form of the same product is written under this molecule; also called recombinant BCMA-His protein; biotin-conjugated recombinant BCMA-His protein; not shown: His tag
T1 sequence (looked up): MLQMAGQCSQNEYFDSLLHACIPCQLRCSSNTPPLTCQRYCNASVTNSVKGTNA

Human BAFFR protein = target: T2, Human BAFFR protein (human, UniProt Q96RJ3 7-71, limits assumed); assay: SPR (Biacore T200), antibody captured by anti-hIgG (Fc), BAFFR as analyte
T2 sequence (looked up): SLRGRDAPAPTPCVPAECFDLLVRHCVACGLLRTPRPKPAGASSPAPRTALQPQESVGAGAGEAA

[2] = target: T1, human BCMA-His protein (ACRO, product …); assay: SPR (Biacore T200), antibody captured by anti-hIgG (Fc), BCMA-His as analyte, 1:1 model
Human TACI protein = target: T3, Human TACI protein (human, UniProt O14836 1-165, limits assumed); assay: SPR (Biacore T200), antibody captured by anti-hIgG (Fc), TACI as analyte
T3 sequence (looked up): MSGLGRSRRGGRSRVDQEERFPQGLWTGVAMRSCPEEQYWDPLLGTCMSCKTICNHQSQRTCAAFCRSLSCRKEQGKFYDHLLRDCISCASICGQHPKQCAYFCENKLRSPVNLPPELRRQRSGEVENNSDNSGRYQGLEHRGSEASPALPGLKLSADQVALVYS

[3] = target: T4, human BCMA on cells (CHO-hBCMA, U266, RPMI8226) (human, UniProt Q02223 1-184); assay: flow cytometry on CHO-hBCMA cells
T4 construct: whole, on cells; also called BCMA protein on cell membranes
T4 sequence (looked up): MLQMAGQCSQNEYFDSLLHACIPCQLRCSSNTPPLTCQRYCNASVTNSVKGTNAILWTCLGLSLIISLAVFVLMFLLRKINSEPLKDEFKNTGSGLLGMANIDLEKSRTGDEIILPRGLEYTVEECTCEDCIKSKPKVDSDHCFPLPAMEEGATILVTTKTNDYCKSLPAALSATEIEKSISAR

[4] = target: T4, human BCMA on cells (CHO-hBCMA, U266, …); assay: flow cytometry on U266 cells
[5] = target: T1, human BCMA-His protein (ACRO, product …); assay: competitive ELISA: antibody pre-mixed with biotin-BCMA-His, binding to coated APRIL

Row | Binder | EC50 [1] | binding result (Human BAFFR protein) | Kd [2] | koff [2] | kon [2] | binding result (Human TACI protein) | EC50 [3] | EC50 [4] | IC50 [5]
1 | B1 | 0.22 nM | no binding (tested: 100 nM) | 0.121 nM | 0.000432 s⁻¹ | 3.57e+06 M⁻¹ s⁻¹ | no binding (tested: 100 nM) | 1.76 nM | 3.86 nM | 0.21 nM
2 | B2 | 0.21 nM | no binding (tested: 100 nM) | 0.496 nM | 0.000572 s⁻¹ | 1.15e+06 M⁻¹ s⁻¹ | no binding (tested: 100 nM) | 1.91 nM | 2.58 nM | 0.38 nM
3 | B3 |  | no binding (tested: 100 nM) |  |  |  | no binding (tested: 100 nM) | 3.39 nM | 3.82 nM | 
